Reference: a collection of fitness landscapes (doi:10.1016/j.celrep.2020.107928)
Over roughly 81,000 sequences, “one-hybrid fitness for binding parS DNA” has its median near -0.17; the highest 2% begin near 0.51. This is one part of the list.

B1: Caulobacter ParB omega fusion; a variant is named by its letters at X, in order, B8GW30 (parent)
chain: MESVVVGEPGMSEGRRGLGRGLSALLGEVDAAPAQAPGEQLGGSREAPIEILQRNPDQPRRTFREEDLEDLSNSIREKGVLQPILVRPSPDTAGEYQIVAGERAWRAAQRAGLKTVPIMVRELDDLAVLEIGIIENVQRADLNVLEEALSYKVLMEKFERTQENIAQTIGKSXSHVANXMRLLXLPDEVQSYLVSGELTAXHARAIAAAADPVALAKQIIEGGLSVRETEALARKAPNLSAGKSKGGRPPRVKDTDTQALESDLSSVLGLDVSIDHRGSTGTLTITYATLEQLDDLCNRLTRGI

Variants of: B1
Test: one-hybrid fitness for binding parS DNA (scaled: cognate 1, non-cognate 0); higher = stronger binding
Settings: with parS DNA site
How it was run: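 In E. coli USO, a HIS3 reporter with its site placed 19 bp from the promoter was used to select Caulobacter ParB variants randomised at four specificity codons. Growth lasted 48 hours at 37°C on histidine-free M9 containing 0.1 mM IPTG and 5 mM 3-AT. Fitness was taken as the log change in variant-to-wild-type read ratio from Illumina sequencing of pre- and post-selection plasmids, rescaled between the non-cognate and cognate sites.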

Variant | one-hybrid fitness for binding parS DNA
YSVC | ≤ 0.2
GCIG | ≤ 0.2
QRRR | ≤ 0.2
THKE | ≤ 0.2
PHPK | ≤ 0.2
WDDF | ≤ 0.2
FNRG | ≤ 0.2
IFYG | ≤ 0.2
PLHR | ≤ 0.2
RPGK | ≤ 0.2
GRDI | ≤ 0.2
PACT | ≤ 0.2
WTHV | ≤ 0.2
TFWR | ≤ 0.2
FYHR | ≤ 0.2
HVIR | ≤ 0.2
YYLV | ≤ 0.2
RIYI | ≤ 0.2
DYAK | ≤ 0.2
ETPI | ≤ 0.2
NWMR | ≤ 0.2
FLGS | ≤ 0.2
PFAW | ≤ 0.2
SPKY | ≤ 0.2
MFID | ≤ 0.2

Variant | one-hybrid fitness for binding parS DNA
WVNN | ≤ 0.2
RWTF | ≤ 0.2
WSCM | ≤ 0.2
VVIT | ≤ 0.2
NSDE | ≤ 0.2
GFKC | ≤ 0.2
HLTY | ≤ 0.2
TKLA | ≤ 0.2
FSYA | ≤ 0.2
QQST | ≤ 0.2
VVYG | ≤ 0.2
YAYA | 0.429
FKHS | ≤ 0.2
LSAF | ≤ 0.2
DISC | ≤ 0.2
YLLS | ≤ 0.2
RRAA | 0.724
TWAK | ≤ 0.2
KVFS | ≤ 0.2
FNRY | ≤ 0.2
SAQE | ≤ 0.2
TIRR | ≤ 0.2
PVQI | ≤ 0.2
HFMR | ≤ 0.2
PSEH | ≤ 0.2

Variant | one-hybrid fitness for binding parS DNA
SPDG | ≤ 0.2
THDG | ≤ 0.2
RLQW | 0.245
MCLG | ≤ 0.2
KCKS | ≤ 0.2
WIRE | ≤ 0.2
CLMY | ≤ 0.2
QTAR | ≤ 0.2
QKQD | ≤ 0.2
QMKT | ≤ 0.2
PECR | ≤ 0.2
IAII | ≤ 0.2
HTIE | ≤ 0.2
KNNR | ≤ 0.2
SSLN | ≤ 0.2
CRHH | ≤ 0.2
MSGC | ≤ 0.2
LPWT | ≤ 0.2
PQKV | ≤ 0.2
VYPH | ≤ 0.2
DGKW | ≤ 0.2
FQTL | ≤ 0.2
SYDG | ≤ 0.2
SPKN | ≤ 0.2
IFSR | ≤ 0.2

Variant | one-hybrid fitness for binding parS DNA
CDWV | ≤ 0.2
AGPM | ≤ 0.2
DRAC | ≤ 0.2
SAMR | ≤ 0.2
VFTW | ≤ 0.2
AFHA | ≤ 0.2
ARNT | ≤ 0.2
QQLL | ≤ 0.2
FQHS | ≤ 0.2
WPSP | ≤ 0.2
LHPL | ≤ 0.2
YGQR | ≤ 0.2
LSQS | ≤ 0.2
RQTQ | ≤ 0.2
DHLM | ≤ 0.2
KKTE | ≤ 0.2
TYRC | ≤ 0.2
PHID | ≤ 0.2
TPLD | ≤ 0.2
LARQ | ≤ 0.2
PAGP | ≤ 0.2
AQAF | ≤ 0.2
MIHR | ≤ 0.2
